Publication PMC12436663
No constants are given. Whether binding was seen depends on the method and setting. Binding seen in cells or lysates may run through a third protein. Some binding calls cover weakened binding; strength is not graded here.

By UniProt entry, the sequences of proteins in these tests, tags left out.
UniProt Q08857: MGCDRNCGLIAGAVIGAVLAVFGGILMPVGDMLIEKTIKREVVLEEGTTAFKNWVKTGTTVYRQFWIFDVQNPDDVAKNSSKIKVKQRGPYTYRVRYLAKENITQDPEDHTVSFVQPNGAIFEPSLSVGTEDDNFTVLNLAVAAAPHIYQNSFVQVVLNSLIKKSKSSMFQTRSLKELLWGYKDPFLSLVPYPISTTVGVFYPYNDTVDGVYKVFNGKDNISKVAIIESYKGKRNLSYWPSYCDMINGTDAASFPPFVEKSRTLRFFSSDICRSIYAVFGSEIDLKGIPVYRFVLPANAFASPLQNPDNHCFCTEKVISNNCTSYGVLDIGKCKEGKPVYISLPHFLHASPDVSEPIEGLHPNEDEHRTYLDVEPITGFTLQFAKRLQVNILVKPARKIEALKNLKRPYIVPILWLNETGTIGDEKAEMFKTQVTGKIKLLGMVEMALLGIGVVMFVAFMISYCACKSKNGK
UniProt Q07969: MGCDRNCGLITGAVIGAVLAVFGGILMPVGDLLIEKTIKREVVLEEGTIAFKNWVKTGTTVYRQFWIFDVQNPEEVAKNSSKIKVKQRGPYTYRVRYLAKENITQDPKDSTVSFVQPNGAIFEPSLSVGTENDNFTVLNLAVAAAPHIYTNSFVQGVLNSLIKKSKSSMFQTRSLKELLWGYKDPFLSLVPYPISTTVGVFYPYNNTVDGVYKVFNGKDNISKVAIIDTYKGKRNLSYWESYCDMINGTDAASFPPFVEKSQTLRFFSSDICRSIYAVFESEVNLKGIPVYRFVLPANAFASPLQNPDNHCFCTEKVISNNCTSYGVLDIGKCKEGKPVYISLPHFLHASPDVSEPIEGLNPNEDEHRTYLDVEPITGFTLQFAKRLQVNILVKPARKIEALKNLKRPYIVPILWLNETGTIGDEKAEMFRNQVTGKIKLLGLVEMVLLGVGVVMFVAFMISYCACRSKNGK

Legend:
[1] = molecular target: T1, Nutritionally regulated adipose and cardiac enriched protein (NRAC), endogenous mouse (mouse (endogenous in mouse adipose tissue)) (UniProt Q8BNX7); test: co-IP; NRAC immunoprecipitated from BAT, SCF and PGF lysates, western blotting for CD36 and caveolin-1; IP lysis buffer with 1% Triton X-100, 4 °C
T1 sequence: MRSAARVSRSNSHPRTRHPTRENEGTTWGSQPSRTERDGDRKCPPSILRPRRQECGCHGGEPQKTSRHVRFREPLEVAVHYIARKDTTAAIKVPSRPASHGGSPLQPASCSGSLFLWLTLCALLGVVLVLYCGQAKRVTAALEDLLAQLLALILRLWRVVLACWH

[2] = molecular target: T2, NRAC 1–135 (mouse NRAC, id1 and tm1) (mouse) (UniProt Q8BNX7); test: co-IP; HEK293T cells co-transfected with NRAC constructs and CD36-mCherry; IP with the NRAC antibody, western blotting
T2 sequence: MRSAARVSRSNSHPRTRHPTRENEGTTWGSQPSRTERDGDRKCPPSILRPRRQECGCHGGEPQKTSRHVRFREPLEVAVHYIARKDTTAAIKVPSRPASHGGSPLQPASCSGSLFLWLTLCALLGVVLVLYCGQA

[3] = molecular target: T3, NRAC 1–144 (mouse NRAC, id1, tm1 and el) (mouse) (UniProt Q8BNX7); test: as above
T3 sequence: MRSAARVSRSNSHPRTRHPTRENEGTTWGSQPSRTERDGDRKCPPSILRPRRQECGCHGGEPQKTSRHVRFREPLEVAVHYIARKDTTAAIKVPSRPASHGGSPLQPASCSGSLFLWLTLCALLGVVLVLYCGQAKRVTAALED

[4] = molecular target: T4, NRAC (1–165), full-length mouse NRAC expressed in HEK293T (mouse) (UniProt Q8BNX7); test: as above
T4 sequence: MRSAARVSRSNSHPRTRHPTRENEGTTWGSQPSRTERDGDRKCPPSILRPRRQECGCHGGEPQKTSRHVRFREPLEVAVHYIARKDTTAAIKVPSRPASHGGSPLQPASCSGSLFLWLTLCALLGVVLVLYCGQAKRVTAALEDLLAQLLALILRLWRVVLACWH

[5] = molecular target: T5, NRAC 1–112 + SP (mouse NRAC lacking tm1, with the signal peptide and transmembrane domain of CD36) (mouse | not stated) (UniProt Q8BNX7); test: as above
T5 sequence: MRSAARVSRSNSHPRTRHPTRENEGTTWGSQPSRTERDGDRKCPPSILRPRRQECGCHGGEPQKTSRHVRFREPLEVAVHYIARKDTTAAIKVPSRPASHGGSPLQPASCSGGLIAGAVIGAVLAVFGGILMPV

[6] = molecular target: CD36, endogenous mouse (mouse (endogenous in mouse adipose tissue and adipocytes)) (UniProt Q08857); test: co-IP; CD36 immunoprecipitated from lysates of wt differentiated adipocytes and of PGF, SCF and BAT of wt male mice, western blotting for caveolin-1

CD36, endogenous mouse (from UniProt Q08857 1-472) (receptor)
binding [1]: binds

CD36-mCherry (from UniProt Q07969 1-472) (receptor)
binding [2]: binds | binding [3]: binds | binding [4]: binds | binding [5]: no binding

B1: caveolin-1, endogenous mouse (protein, UniProt P49817 1-178)
chain: MSGGKYVDSEGHLYTVPIREQGNIYKPNNKAMADEVTEKQVYDAHTKEIDLVNRDPKHLNDDVVKIDFEDVIAEPEGTHSFDGIWKASFTTFTVTKYWFYRLLSTIFGIPMALIWGIYFAILSFLHIWAVVPCIKSFLIEIQCISRVYSIYVHTFCDPLFEAIGKIFSNIRISTQKEI
binding [1]: binds | binding [6]: binds
